# Results published in the supplement of paper PMC8728848.
# The other results are listed elsewhere or left out.
# B1: Clrb (Mus musculus) (protein)
# chain: ITGATKTEQIPVNKTYAACPQNWIGVENKCFYFSEYPSNWTFAQAFCMAQEAQLARFDNQDELNFLMRYKANFDSWIGLHRESSEHPWKWTDNTEYNNTIPIRGEERFAYLNNNGISSTRIYSLRMWICSKLNSYSLHCQTPFFPSGTKHHHHHHHHG
# Columns and labels:
# Experiment in all cases: glycan array binding signal (z-score within array); higher = stronger binding
# Conditions in all cases: glycan notation: IUPAC condensed, linker removed
# [1] = target: Neu5Ac(a2-3)GalNAc(b1-4)GlcNAc
# Procedure, shortened: (§1)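 Glycan array binding is given as a within-array Z-score, which can be read as non-binding when negative. The arrays, 3228 of them, came from the Consortium for Functional Glycomics database and were retained only where the protein sequence was available. Z-scores were averaged across arrays of the same protein sequence at different concentrations or buffers and across linkers.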
# [2] = target: Neu5Ac(a2-3)[GalNAc(b1-4)]Gal(b1-4)Glc
# Procedure, shortened: as §1
# [3] = target: Neu5Ac(a2-3)[GalNAc(b1-4)]Gal(b1-4)GlcNAc
# Procedure, shortened: as §1
# [4] = target: Neu5Ac(a2-3)[GalNAc(b1-4)]Gal(b1-4)GlcNAc(b1-3)GalNAc
# Procedure, shortened: as §1
# [5] = target: Neu5Ac(a2-3)[Neu5Ac(a2-6)]GalNAc
# Procedure, shortened: as §1
# Neu5Ac(a2-6)Gal = target: Neu5Ac(a2-6)Gal
# Procedure, shortened: as §1
# [6] = target: Neu5Ac(a2-6)Gal(b1-3)GlcNAc(b1-3)[Gal(b1-4)GlcNAc(b1-6)]Gal(b1-4)Glc
# Procedure, shortened: as §1
# Neu5Ac(a2-6)Gal(b1-4)Glc = target: Neu5Ac(a2-6)Gal(b1-4)Glc
# Procedure, shortened: as §1
# [7] = target: Neu5Ac(a2-6)Gal(b1-4)GlcNAc
# Procedure, shortened: as §1
# [8] = target: Neu5Ac(a2-6)Gal(b1-4)GlcNAc(b1-2)Man
# Procedure, shortened: as §1
# [9] = target: Neu5Ac(a2-6)Gal(b1-4)GlcNAc(b1-2)Man(a1-3)Man(b1-4)GlcNAc(b1-4)GlcNAc
# Procedure, shortened: as §1
# [10] = target: Neu5Ac(a2-6)Gal(b1-4)GlcNAc(b1-2)Man(a1-3)[Gal(b1-4)GlcNAc(b1-2)Man(a1-6)]Man(b1-4)GlcNAc(b1-4)GlcNAc
# Procedure, shortened: as §1
# [11] = target: Neu5Ac(a2-6)Gal(b1-4)GlcNAc(b1-2)Man(a1-3)[GlcNAc(b1-2)Man(a1-6)]Man(b1-4)GlcNAc(b1-4)GlcNAc
# Procedure, shortened: as §1
# [12] = target: Neu5Ac(a2-6)Gal(b1-4)GlcNAc(b1-2)Man(a1-3)[GlcNAc(b1-4)][Neu5Ac(a2-6)Gal(b1-4)GlcNAc(b1-2)Man(a1-6)]Man(b1-4)GlcNAc(b1-4)GlcNAc
# Procedure, shortened: as §1
# [13] = target: Neu5Ac(a2-6)Gal(b1-4)GlcNAc(b1-2)Man(a1-3)[Man(a1-6)]Man(b1-4)GlcNAc(b1-4)GlcNAc
# Procedure, shortened: as §1
# [14] = target: Neu5Ac(a2-6)Gal(b1-4)GlcNAc(b1-2)Man(a1-3)[Neu5Ac(a2-3)Gal(b1-4)GlcNAc(b1-2)Man(a1-6)]Man(b1-4)GlcNAc(b1-4)GlcNAc
# Procedure, shortened: as §1
# [15] = target: Neu5Ac(a2-6)Gal(b1-4)GlcNAc(b1-2)Man(a1-3)[Neu5Ac(a2-6)Gal(b1-4)GlcNAc(b1-2)Man(a1-6)]Man(b1-4)GlcNAc(b1-4)GlcNAc
# Procedure, shortened: as §1
# [16] = target: Neu5Ac(a2-6)Gal(b1-4)GlcNAc(b1-2)Man(a1-3)[Neu5Ac(a2-6)Gal(b1-4)GlcNAc(b1-2)Man(a1-6)]Man(b1-4)GlcNAc(b1-4)[Fuc(a1-6)]GlcNAc
# Procedure, shortened: as §1
# [17] = target: Neu5Ac(a2-6)Gal(b1-4)GlcNAc(b1-2)Man(a1-6)Man(b1-4)GlcNAc(b1-4)GlcNAc
# Procedure, shortened: as §1
# [18] = target: Neu5Ac(a2-6)Gal(b1-4)GlcNAc(b1-2)Man(a1-6)[Gal(b1-4)GlcNAc(b1-2)Man(a1-3)]Man(b1-4)GlcNAc(b1-4)GlcNAc
# Procedure, shortened: as §1
# [19] = target: Neu5Ac(a2-6)Gal(b1-4)GlcNAc(b1-2)Man(a1-6)[GlcNAc(b1-2)Man(a1-3)]Man(b1-4)GlcNAc(b1-4)GlcNAc
# Procedure, shortened: as §1
# [20] = target: Neu5Ac(a2-6)Gal(b1-4)GlcNAc(b1-2)Man(a1-6)[Man(a1-3)]Man(b1-4)GlcNAc(b1-4)GlcNAc
# Procedure, shortened: as §1
# [21] = target: Neu5Ac(a2-6)Gal(b1-4)GlcNAc(b1-2)[Neu5Ac(a2-6)Gal(b1-4)GlcNAc(b1-4)]Man(a1-3)[GlcNAc(b1-4)][Neu5Ac(a2-6)Gal(b1-4)GlcNAc(b1-2)[Neu5Ac(a2-6)Gal(b1-4)GlcNAc(b1-6)]Man(a1-6)]Man(b1-4)GlcNAc(b1-4)GlcNAc
# Procedure, shortened: as §1
# [22] = target: Neu5Ac(a2-6)Gal(b1-4)GlcNAc(b1-2)[Neu5Ac(a2-6)Gal(b1-4)GlcNAc(b1-4)]Man(a1-3)[GlcNAc(b1-4)][Neu5Ac(a2-6)Gal(b1-4)GlcNAc(b1-4)Man(a1-6)]Man(b1-4)GlcNAc(b1-4)GlcNAc
# Procedure, shortened: as §1
# [23] = target: Neu5Ac(a2-6)Gal(b1-4)GlcNAc(b1-2)[Neu5Ac(a2-6)Gal(b1-4)GlcNAc(b1-6)]Man(a1-6)[Neu5Ac(a2-6)Gal(b1-4)GlcNAc(b1-2)Man(a1-3)][GlcNAc(b1-4)]Man(b1-4)GlcNAc(b1-4)GlcNAc
# Procedure, shortened: as §1
# [24] = target: Neu5Ac(a2-6)Gal(b1-4)GlcNAc(b1-3)Gal(b1-3)GlcNAc
# Procedure, shortened: as §1
# [25] = target: Neu5Ac(a2-6)Gal(b1-4)GlcNAc(b1-3)Gal(b1-4)GlcNAc
# Procedure, shortened: as §1
# [26] = target: Neu5Ac(a2-6)Gal(b1-4)GlcNAc(b1-3)Gal(b1-4)GlcNAc(b1-2)Man(a1-3)[Neu5Ac(a2-6)Gal(b1-4)GlcNAc(b1-3)Gal(b1-4)GlcNAc(b1-2)Man(a1-6)]GalNAc
# Procedure, shortened: as §1
# [27] = target: Neu5Ac(a2-6)Gal(b1-4)GlcNAc(b1-3)Gal(b1-4)GlcNAc(b1-3)Gal(b1-4)GlcNAc
# Procedure, shortened: as §1
# [28] = target: Neu5Ac(a2-6)Gal(b1-4)GlcNAc(b1-3)Gal(b1-4)GlcNAc(b1-3)Gal(b1-4)GlcNAc(b1-2)Man(a1-3)[Neu5Ac(a2-6)Gal(b1-4)GlcNAc(b1-3)Gal(b1-4)GlcNAc(b1-3)Gal(b1-4)GlcNAc(b1-2)Man(a1-6)]GalNAc
# Procedure, shortened: as §1
# [29] = target: Neu5Ac(a2-6)Gal(b1-4)GlcNAc(b1-3)Gal(b1-4)GlcNAc(b1-3)GalNAc
# Procedure, shortened: as §1
# [30] = target: Neu5Ac(a2-6)Gal(b1-4)GlcNAc(b1-3)Gal(b1-4)GlcNAc(b1-3)[Neu5Ac(a2-6)Gal(b1-4)GlcNAc(b1-3)Gal(b1-4)GlcNAc(b1-6)]GalNAc
# Procedure, shortened: as §1
# [31] = target: Neu5Ac(a2-6)Gal(b1-4)GlcNAc(b1-3)Gal(b1-4)GlcNAc(b1-6)[Gal(b1-3)]GalNAc
# Procedure, shortened: as §1
# [32] = target: Neu5Ac(a2-6)Gal(b1-4)GlcNAc(b1-3)Gal(b1-4)[Fuc(a1-3)]GlcNAc(b1-3)Gal(b1-4)[Fuc(a1-3)]GlcNAc
# Procedure, shortened: as §1
# [33] = target: Neu5Ac(a2-6)Gal(b1-4)GlcNAc(b1-3)GalNAc
# Procedure, shortened: as §1
# [34] = target: Neu5Ac(a2-6)Gal(b1-4)GlcNAc(b1-3)[Neu5Ac(a2-6)Gal(b1-4)GlcNAc(b1-6)]GalNAc
# Procedure, shortened: as §1
# [35] = target: Neu5Ac(a2-6)Gal(b1-4)GlcNAc(b1-6)GalNAc
# Procedure, shortened: as §1
# [36] = target: Neu5Ac(a2-6)Gal(b1-4)GlcNAc(b1-6)[Gal(b1-3)GlcNAc(b1-3)]Gal(b1-4)Glc
# Procedure, shortened: as §1
binder,measurement,setting,value
B1,glycan array binding signal (z-score),[1],-0.262
same,glycan array binding signal (z-score),[2],-0.329
same,glycan array binding signal (z-score),[3],-0.318
same,glycan array binding signal (z-score),[4],-0.464
same,glycan array binding signal (z-score),[5],-0.311
same,glycan array binding signal (z-score),Neu5Ac(a2-6)Gal,-0.171
same,glycan array binding signal (z-score),[6],-0.271
same,glycan array binding signal (z-score),Neu5Ac(a2-6)Gal(b1-4)Glc,-0.192
same,glycan array binding signal (z-score),[7],-0.219
same,glycan array binding signal (z-score),[8],-0.19
same,glycan array binding signal (z-score),[9],-0.275
same,glycan array binding signal (z-score),[10],-0.478
same,glycan array binding signal (z-score),[11],-0.472
same,glycan array binding signal (z-score),[12],-0.349
same,glycan array binding signal (z-score),[13],-0.44
same,glycan array binding signal (z-score),[14],-0.434
same,glycan array binding signal (z-score),[15],-0.185
same,glycan array binding signal (z-score),[16],-0.37
same,glycan array binding signal (z-score),[17],-0.393
same,glycan array binding signal (z-score),[18],-0.36
same,glycan array binding signal (z-score),[19],-0.222
same,glycan array binding signal (z-score),[20],-0.503
same,glycan array binding signal (z-score),[21],-0.398
same,glycan array binding signal (z-score),[22],-0.459
same,glycan array binding signal (z-score),[23],-0.03
same,glycan array binding signal (z-score),[24],-0.345
same,glycan array binding signal (z-score),[25],-0.402
same,glycan array binding signal (z-score),[26],-0.362
same,glycan array binding signal (z-score),[27],-0.172
same,glycan array binding signal (z-score),[28],-0.017
same,glycan array binding signal (z-score),[29],-0.628
same,glycan array binding signal (z-score),[30],-0.514
same,glycan array binding signal (z-score),[31],-0.197
same,glycan array binding signal (z-score),[32],-0.211
same,glycan array binding signal (z-score),[33],-0.515
same,glycan array binding signal (z-score),[34],-0.479
same,glycan array binding signal (z-score),[35],-0.437
same,glycan array binding signal (z-score),[36],-0.442
